In assay [1] the target is T1, Myc-tagged EPS8 (human), Q12929.
T1 chain: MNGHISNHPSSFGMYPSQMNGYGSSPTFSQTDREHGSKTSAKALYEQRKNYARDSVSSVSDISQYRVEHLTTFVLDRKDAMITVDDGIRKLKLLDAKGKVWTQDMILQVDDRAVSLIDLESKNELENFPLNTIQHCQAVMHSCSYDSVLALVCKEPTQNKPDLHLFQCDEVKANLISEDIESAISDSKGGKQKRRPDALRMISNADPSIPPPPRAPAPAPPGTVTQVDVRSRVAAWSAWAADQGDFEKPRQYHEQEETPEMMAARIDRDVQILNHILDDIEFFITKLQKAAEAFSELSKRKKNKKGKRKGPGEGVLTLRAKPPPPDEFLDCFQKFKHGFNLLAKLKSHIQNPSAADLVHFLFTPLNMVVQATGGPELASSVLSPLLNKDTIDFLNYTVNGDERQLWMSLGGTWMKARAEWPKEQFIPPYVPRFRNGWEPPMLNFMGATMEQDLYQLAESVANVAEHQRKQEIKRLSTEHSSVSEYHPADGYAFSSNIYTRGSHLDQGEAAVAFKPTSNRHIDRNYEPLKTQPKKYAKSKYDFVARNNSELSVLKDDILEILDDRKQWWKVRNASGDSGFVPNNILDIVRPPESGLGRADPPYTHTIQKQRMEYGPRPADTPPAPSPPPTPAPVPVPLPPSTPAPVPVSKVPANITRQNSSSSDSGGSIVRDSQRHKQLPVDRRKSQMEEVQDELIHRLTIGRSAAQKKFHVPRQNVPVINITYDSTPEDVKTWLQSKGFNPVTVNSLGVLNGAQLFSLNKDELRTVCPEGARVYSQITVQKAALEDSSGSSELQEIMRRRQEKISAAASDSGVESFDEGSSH
Briefly: co-IP; OVCAR3 cells (no ABI1 expression) co-transfected with tagged constructs (HA-ABI1 or its regions, Flag-SOS1 or its region, Myc-EPS8 or its region); 12 h starvation, 20 μM LPA; lysates. The note with it: remark: other sources report otherwise.

Assay [2] addresses SOS1 (endogenous, SK-OV3 cells) (human (endogenous in SK-OV3)) (UniProt Q07889). Briefly: pull-down; competition: synthetic peptide (10 μM) added to LPA-stimulated SK-OV3 cell lysate 1 h before GST-ABI1 beads; the peptide meets the protein in the lysate; only the binder purified.
For assay [3], the target named is EPS8 (endogenous, SK-OV3 cells) (human (endogenous in SK-OV3)) (UniProt Q12929). Described as above.

No constants are given. Whether binding was seen depends on the method and setting. In cells and extracts the contact can be indirect. Some binding calls cover weakened binding; strength is not graded here. For part of these data: Tags and fused reporters may be left off the sequences shown.

B1: Flag-tagged SOS1, Q07889 1-1333 (protein)
chain: MQAQQLPYEFFSEENAPKWRGLLVPALKKVQGQVHPTLESNDDALQYVEELILQLLNMLCQAQPRSASDVEERVQKSFPHPIDKWAIADAQSAIEKRKRRNPLSLPVEKIHPLLKEVLGYKIDHQVSVYIVAVLEYISADILKLVGNYVRNIRHYEITKQDIKVAMCADKVLMDMFHQDVEDINILSLTDEEPSTSGEQTYYDLVKAFMAEIRQYIRELNLIIKVFREPFVSNSKLFSANDVENIFSRIVDIHELSVKLLGHIEDTVEMTDEGSPHPLVGSCFEDLAEELAFDPYESYARDILRPGFHDRFLSQLSKPGAALYLQSIGEGFKEAVQYVLPRLLLAPVYHCLHYFELLKQLEEKSEDQEDKECLKQAITALLNVQSGMEKICSKSLAKRRLSESACRFYSQQMKGKQLAIKKMNEIQKNIDGWEGKDIGQCCNEFIMEGTLTRVGAKHERHIFLFDGLMICCKSNHGQPRLPGASNAEYRLKEKFFMRKVQINDKDDTNEYKHAFEIILKDENSVIFSAKSAEEKNNWMAALISLQYRSTLERMLDVTMLQEEKEEQMRLPSADVYRFAEPDSEENIIFEENMQPKAGIPIIKAGTVIKLIERLTYHMYADPNFVRTFLTTYRSFCKPQELLSLIIERFEIPEPEPTEADRIAIENGDQPLSAELKRFRKEYIQPVQLRVLNVCRHWVEHHFYDFERDAYLLQRMEEFIGTVRGKAMKKWVESITKIIQRKKIARDNGPGHNITFQSSPPTVEWHISRPGHIETFDLLTLHPIEIARQLTLLESDLYRAVQPSELVGSVWTKEDKEINSPNLLKMIRHTTNLTLWFEKCIVETENLEERVAVVSRIIEILQVFQELNNFNGVLEVVSAMNSSPVYRLDHTFEQIPSRQKKILEEAHELSEDHYKKYLAKLRSINPPCVPFFGIYLTNILKTEEGNPEVLKRHGKELINFSKRRKVAEITGEIQQYQNQPYCLRVESDIKRFFENLNPMGNSMEKEFTDYLFNKSLEIEPRNPKPLPRFPKKYSYPLKSPGVRPSNPRPGTMRHPTPLQQEPRKISYSRIPESETESTASAPNSPRTPLTPPPASGASSTTDVCSVFDSDHSSPFHSSNDTVFIQVTLPHGPRSASVSSISLTKGTDEVPVPPPVPPRRRPESAPAESSPSKIMSKHLDSPPAIPPRQPTSKAYSPRYSISDRTSISDPPESPPLLPPREPVRTPDVFSSSPLHLQPPPLGKKSDHGNAFFPNSPSPFTPPPPQTPSPHGTRRHLPSPPLTQEVDLHSIAGPPVPPRQSTSQHIPKLPPKTYKREHTHPSMHRDGPPLLENAHSS
Regarding B1, the binding entry in assay [1] was “no binding”. Turning to EKVVAIYDYTKDKDDELSFMEGAII [inhibitory short peptide SH3-3], the binding result in assay [2] is “binds”. Regarding PPPPPPPPVDYEDEE [inhibitory short peptide p + p-8], the binding result in assay [3] is recorded as “binds”.

The record behind these values is article PMC6727365.
